The target in test [1] is T1, FLAG-tagged PPM1G (human) (UniProt O15355).
T1 sequence: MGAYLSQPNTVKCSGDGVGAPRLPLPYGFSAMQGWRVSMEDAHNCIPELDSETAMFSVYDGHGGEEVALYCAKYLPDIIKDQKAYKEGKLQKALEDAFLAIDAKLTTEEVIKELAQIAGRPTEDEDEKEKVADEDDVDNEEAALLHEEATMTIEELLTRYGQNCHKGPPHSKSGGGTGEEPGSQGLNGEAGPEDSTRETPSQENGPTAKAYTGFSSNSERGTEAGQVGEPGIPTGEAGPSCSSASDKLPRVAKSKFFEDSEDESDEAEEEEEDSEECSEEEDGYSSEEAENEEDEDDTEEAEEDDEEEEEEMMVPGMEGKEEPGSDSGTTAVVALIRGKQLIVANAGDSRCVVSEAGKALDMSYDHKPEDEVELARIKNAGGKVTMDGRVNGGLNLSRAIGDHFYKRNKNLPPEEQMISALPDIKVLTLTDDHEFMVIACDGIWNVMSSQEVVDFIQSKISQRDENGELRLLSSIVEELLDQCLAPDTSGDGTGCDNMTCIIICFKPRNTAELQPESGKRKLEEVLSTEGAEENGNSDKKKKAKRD
Description: co-IP; anti-FLAG affinity gel (25 μl), 1-2 mg lysate of transiently transfected HEK293H cells, 1 h at 4°C, lysis buffer 50 mM HEPES-KOH pH 7.5, 50 mM KCl, 2 mM MgCl2, 2 mM EGTA, 5% glycerol, 0.5% NP40; partners detected by Western blot; in Figure 3B cells treated with DMSO or PP242 for 2 h.

Sequences of proteins named here, by UniProt entry; tags and fusion partners are left off. A change or cut given only in a name is not applied to a line headed by its entry. A line that says so, or that is headed by a name, gives the form on record, which may keep a tag or linker.
UniProt P67775: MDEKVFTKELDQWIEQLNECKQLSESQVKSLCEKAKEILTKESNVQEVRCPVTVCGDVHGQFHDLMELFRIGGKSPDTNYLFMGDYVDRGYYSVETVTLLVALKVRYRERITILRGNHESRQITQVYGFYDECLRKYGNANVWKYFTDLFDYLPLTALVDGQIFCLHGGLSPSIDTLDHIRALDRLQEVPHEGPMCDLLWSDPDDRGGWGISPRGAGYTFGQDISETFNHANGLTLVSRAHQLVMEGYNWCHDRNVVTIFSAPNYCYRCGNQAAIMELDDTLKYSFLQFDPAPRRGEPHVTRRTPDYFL
UniProt P06730: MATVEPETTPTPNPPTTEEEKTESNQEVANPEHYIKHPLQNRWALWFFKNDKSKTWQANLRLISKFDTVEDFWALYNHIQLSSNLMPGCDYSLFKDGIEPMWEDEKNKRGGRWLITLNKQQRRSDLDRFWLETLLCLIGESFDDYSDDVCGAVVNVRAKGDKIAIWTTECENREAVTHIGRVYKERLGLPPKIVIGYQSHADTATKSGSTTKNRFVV
FLAG-eIF4E-VWLmut (P06730, form named): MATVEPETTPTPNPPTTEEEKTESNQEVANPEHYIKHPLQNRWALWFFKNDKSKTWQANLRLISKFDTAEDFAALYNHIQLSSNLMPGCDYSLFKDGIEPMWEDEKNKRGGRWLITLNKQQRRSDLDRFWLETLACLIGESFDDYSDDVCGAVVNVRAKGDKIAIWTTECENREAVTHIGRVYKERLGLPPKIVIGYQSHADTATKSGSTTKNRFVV
UniProt P35221: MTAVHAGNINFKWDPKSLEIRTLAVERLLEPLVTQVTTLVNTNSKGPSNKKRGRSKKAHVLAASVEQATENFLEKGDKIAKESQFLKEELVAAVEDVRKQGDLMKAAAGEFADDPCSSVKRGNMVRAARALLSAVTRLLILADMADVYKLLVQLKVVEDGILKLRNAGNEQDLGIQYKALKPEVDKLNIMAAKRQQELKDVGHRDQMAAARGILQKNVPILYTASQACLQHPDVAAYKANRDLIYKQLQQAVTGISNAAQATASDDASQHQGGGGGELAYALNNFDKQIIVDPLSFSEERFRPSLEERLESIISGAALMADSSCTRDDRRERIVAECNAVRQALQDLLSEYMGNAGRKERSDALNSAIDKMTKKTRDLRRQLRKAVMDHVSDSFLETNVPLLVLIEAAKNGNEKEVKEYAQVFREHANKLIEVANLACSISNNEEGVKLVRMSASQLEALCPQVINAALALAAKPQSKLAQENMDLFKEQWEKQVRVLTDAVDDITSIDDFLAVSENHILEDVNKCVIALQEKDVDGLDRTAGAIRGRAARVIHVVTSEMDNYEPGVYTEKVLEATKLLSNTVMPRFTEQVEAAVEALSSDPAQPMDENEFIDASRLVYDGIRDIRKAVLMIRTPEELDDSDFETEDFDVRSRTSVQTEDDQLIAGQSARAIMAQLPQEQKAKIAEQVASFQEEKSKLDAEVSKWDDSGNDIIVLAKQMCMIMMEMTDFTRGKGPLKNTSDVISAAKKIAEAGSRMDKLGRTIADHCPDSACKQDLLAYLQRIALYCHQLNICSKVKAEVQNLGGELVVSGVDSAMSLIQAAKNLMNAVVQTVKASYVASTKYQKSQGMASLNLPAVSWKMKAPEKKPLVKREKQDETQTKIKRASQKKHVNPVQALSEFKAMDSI
UniProt Q13541: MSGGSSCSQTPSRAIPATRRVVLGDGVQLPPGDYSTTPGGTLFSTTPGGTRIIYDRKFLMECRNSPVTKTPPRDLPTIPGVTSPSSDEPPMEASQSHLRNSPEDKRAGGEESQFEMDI

A further test addresses T2, FLAG-PPM1G-YLmut (human) (UniProt O15355).
T2 sequence: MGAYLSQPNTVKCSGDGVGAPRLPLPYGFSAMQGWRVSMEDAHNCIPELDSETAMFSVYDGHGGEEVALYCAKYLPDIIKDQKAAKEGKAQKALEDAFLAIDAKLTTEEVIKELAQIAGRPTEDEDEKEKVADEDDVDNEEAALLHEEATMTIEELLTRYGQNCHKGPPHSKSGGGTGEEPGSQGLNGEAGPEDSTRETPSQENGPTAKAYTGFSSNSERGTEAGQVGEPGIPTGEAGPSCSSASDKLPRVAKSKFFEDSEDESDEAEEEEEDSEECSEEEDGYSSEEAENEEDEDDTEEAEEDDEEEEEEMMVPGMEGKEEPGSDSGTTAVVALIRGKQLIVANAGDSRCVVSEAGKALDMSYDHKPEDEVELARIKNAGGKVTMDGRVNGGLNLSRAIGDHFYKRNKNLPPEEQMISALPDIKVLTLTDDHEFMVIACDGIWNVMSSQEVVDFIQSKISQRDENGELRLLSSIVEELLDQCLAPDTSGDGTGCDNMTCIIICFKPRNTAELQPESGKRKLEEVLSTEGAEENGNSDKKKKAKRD
The description is as above.

The target in a further test is FLAG-PP2Acα (UniProt P67775). The description is as above.
The next test addresses FLAG-eIF4E-VWLmut (UniProt P06730). Description: co-IP; FLAG-tagged eIF4E proteins co-expressed with HA-PPM1G in HEK293H; 6 mg input to saturate 15 μl anti-FLAG agarose-affinity gel; Western blot, quantitated.
Test [2] deals with FLAG-tagged eIF4E (UniProt P06730). The description is as above.
For test [3], the target named is endogenous eIF4E (human (endogenous in HEK293H)) (UniProt P06730). Description: condition: only eIF4E bound to m7GDP (cap analog) agarose; pull-down; m7GDP (cap analog)-agarose beads (15 μl), 0.5 mg lysate of HEK293H cells transfected with FLAG-GFP or FLAG-PPM1G, 30 min at 4°C; Western blot. (In general: Immunoblotting shows a protein as a band on a membrane.)
In a further test the target is GST-tagged eIF4E (UniProt P06730). Description: pull-down; GST pull-down: 1 μg GST-eIF4E on glutathione magnetic agarose beads, 100 ng 6xHIS-tagged protein, equilibration buffer, 30 min at 4°C; Western blot; both purified.
In test [4] the target is FLAG-tagged eIF4E (UniProt P06730). Description: co-IP; anti-FLAG affinity gel (25 μl), 1-2 mg lysate of transiently transfected HEK293H cells, 1 h at 4°C, lysis buffer 50 mM HEPES-KOH pH 7.5, 50 mM KCl, 2 mM MgCl2, 2 mM EGTA, 5% glycerol, 0.5% NP40; partners detected by Western blot; in Figure 3B cells treated with DMSO or PP242 for 2 h.

These are yes or no findings as the source states them, for the method shown. For some of these results: In cells and extracts the contact can be indirect. Some results given as binding are weak or reduced against the parent protein; the word gives no strength. For some of these results: Where a sequence is shown, tags or fusion partners need not be part of it.

Regarding α-catenin (from UniProt P35221 1-906), the binding result (in test [1]; with FLAG-PPM1G-YLmut (human)) was “binds” each time.

“endogenous eIF4E (from UniProt P06730 1-217)”: the binding entry is listed as “binds” in test [1] and “no binding” in the test with FLAG-PP2Acα.

As for “endogenous 4E-BP1 (from UniProt Q13541 1-118) (other; other documents disagree on this pair)”, in test [1], the binding result is “no binding”.

B1: HA-PPM1G (enzyme, UniProt O15355 1-546)
chain: MGAYLSQPNTVKCSGDGVGAPRLPLPYGFSAMQGWRVSMEDAHNCIPELDSETAMFSVYDGHGGEEVALYCAKYLPDIIKDQKAYKEGKLQKALEDAFLAIDAKLTTEEVIKELAQIAGRPTEDEDEKEKVADEDDVDNEEAALLHEEATMTIEELLTRYGQNCHKGPPHSKSGGGTGEEPGSQGLNGEAGPEDSTRETPSQENGPTAKAYTGFSSNSERGTEAGQVGEPGIPTGEAGPSCSSASDKLPRVAKSKFFEDSEDESDEAEEEEEDSEECSEEEDGYSSEEAENEEDEDDTEEAEEDDEEEEEEMMVPGMEGKEEPGSDSGTTAVVALIRGKQLIVANAGDSRCVVSEAGKALDMSYDHKPEDEVELARIKNAGGKVTMDGRVNGGLNLSRAIGDHFYKRNKNLPPEEQMISALPDIKVLTLTDDHEFMVIACDGIWNVMSSQEVVDFIQSKISQRDENGELRLLSSIVEELLDQCLAPDTSGDGTGCDNMTCIIICFKPRNTAELQPESGKRKLEEVLSTEGAEENGNSDKKKKAKRD
On to B1, for which the figures for the binding entry in the test with FLAG-eIF4E-VWLmut and with FLAG-tagged eIF4E [2] were “no binding” and “binds”, respectively.

B2: FLAG-tagged PPM1G (enzyme, UniProt O15355 1-546)
chain: MGAYLSQPNTVKCSGDGVGAPRLPLPYGFSAMQGWRVSMEDAHNCIPELDSETAMFSVYDGHGGEEVALYCAKYLPDIIKDQKAYKEGKLQKALEDAFLAIDAKLTTEEVIKELAQIAGRPTEDEDEKEKVADEDDVDNEEAALLHEEATMTIEELLTRYGQNCHKGPPHSKSGGGTGEEPGSQGLNGEAGPEDSTRETPSQENGPTAKAYTGFSSNSERGTEAGQVGEPGIPTGEAGPSCSSASDKLPRVAKSKFFEDSEDESDEAEEEEEDSEECSEEEDGYSSEEAENEEDEDDTEEAEEDDEEEEEEMMVPGMEGKEEPGSDSGTTAVVALIRGKQLIVANAGDSRCVVSEAGKALDMSYDHKPEDEVELARIKNAGGKVTMDGRVNGGLNLSRAIGDHFYKRNKNLPPEEQMISALPDIKVLTLTDDHEFMVIACDGIWNVMSSQEVVDFIQSKISQRDENGELRLLSSIVEELLDQCLAPDTSGDGTGCDNMTCIIICFKPRNTAELQPESGKRKLEEVLSTEGAEENGNSDKKKKAKRD
In the case of B2, the binding result in test [3] was “no binding”.

B3: HIS-tagged PPM1G (enzyme, UniProt O15355 1-546)
chain: MGAYLSQPNTVKCSGDGVGAPRLPLPYGFSAMQGWRVSMEDAHNCIPELDSETAMFSVYDGHGGEEVALYCAKYLPDIIKDQKAYKEGKLQKALEDAFLAIDAKLTTEEVIKELAQIAGRPTEDEDEKEKVADEDDVDNEEAALLHEEATMTIEELLTRYGQNCHKGPPHSKSGGGTGEEPGSQGLNGEAGPEDSTRETPSQENGPTAKAYTGFSSNSERGTEAGQVGEPGIPTGEAGPSCSSASDKLPRVAKSKFFEDSEDESDEAEEEEEDSEECSEEEDGYSSEEAENEEDEDDTEEAEEDDEEEEEEMMVPGMEGKEEPGSDSGTTAVVALIRGKQLIVANAGDSRCVVSEAGKALDMSYDHKPEDEVELARIKNAGGKVTMDGRVNGGLNLSRAIGDHFYKRNKNLPPEEQMISALPDIKVLTLTDDHEFMVIACDGIWNVMSSQEVVDFIQSKISQRDENGELRLLSSIVEELLDQCLAPDTSGDGTGCDNMTCIIICFKPRNTAELQPESGKRKLEEVLSTEGAEENGNSDKKKKAKRD
For B3, the binding result in the test with GST-tagged eIF4E is recorded as “binds”.

B4: endogenous PPM1G (enzyme, UniProt O15355 1-546)
chain: MGAYLSQPNTVKCSGDGVGAPRLPLPYGFSAMQGWRVSMEDAHNCIPELDSETAMFSVYDGHGGEEVALYCAKYLPDIIKDQKAYKEGKLQKALEDAFLAIDAKLTTEEVIKELAQIAGRPTEDEDEKEKVADEDDVDNEEAALLHEEATMTIEELLTRYGQNCHKGPPHSKSGGGTGEEPGSQGLNGEAGPEDSTRETPSQENGPTAKAYTGFSSNSERGTEAGQVGEPGIPTGEAGPSCSSASDKLPRVAKSKFFEDSEDESDEAEEEEEDSEECSEEEDGYSSEEAENEEDEDDTEEAEEDDEEEEEEMMVPGMEGKEEPGSDSGTTAVVALIRGKQLIVANAGDSRCVVSEAGKALDMSYDHKPEDEVELARIKNAGGKVTMDGRVNGGLNLSRAIGDHFYKRNKNLPPEEQMISALPDIKVLTLTDDHEFMVIACDGIWNVMSSQEVVDFIQSKISQRDENGELRLLSSIVEELLDQCLAPDTSGDGTGCDNMTCIIICFKPRNTAELQPESGKRKLEEVLSTEGAEENGNSDKKKKAKRD
B4: in the test with FLAG-tagged eIF4E [4], the binding entry is recorded as “binds”.

Values taken from PMC11306785.
